# According to the supplement of paper PMC8728848:
# This is one part of the list.
# B1: Gal 4 (Canis lupus) (protein)
# chain: MAYVPAPGYQPTYNPTLPYNKPIPGGLSVGMSVYIQGITSEHMRRFCVNFVAGAHPGSDIAFHFNPRFDGWDKVVFNSHLGGKWGSEEKKRSMPFRKGTHFELVFMVLAEHYKVVVNGNPFYEFGHRLPLQLVTHLQVEGDVELQSINFIGGTQPLGQGPGHTQQQPSSLPTMEGPPVFNPPVPFRKRLQGGLTVRRTVIIKGFVPFTSKSFVINFMVESSGDLALHINPRLTEGLVVRNSCLNGSWGSEDRKLSYNPFIPGQFFDLSIRCGMDRFKVYANGQHLFDFSHRLLALQNVDMLEINGDVTLSYIQV
# Experiments:
# Assay in all cases: glycan array binding signal (z-score within array); higher = stronger binding
# Conditions in all cases: glycan notation: IUPAC condensed, linker removed
# [1] = target: GlcNAc(b1-6)Gal(b1-4)GlcNAc
# Summary of the method: (§1)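 The binding signal is a Z-score computed within each array and averaged over linkers. Arrays of the same protein sequence at different concentrations or buffers were also averaged together. Data originate from 3228 arrays in the Consortium for Functional Glycomics database, kept only where the protein sequence was available.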
# [2] = target: GlcNAc(b1-6)GalNAc
# Summary of the method: as §1
# [3] = target: GlcNAc3Prop(b1-4)GlcNAc
# Summary of the method: as §1
# [4] = target: GlcNAc6S(b1-3)Gal(b1-4)GlcNAc
# Summary of the method: as §1
# [5] = target: Kdn(a2-3)Gal(b1-3)GalNAc
# Summary of the method: as §1
# [6] = target: Kdn(a2-3)Gal(b1-3)GlcNAc
# Summary of the method: as §1
# [7] = target: Kdn(a2-3)Gal(b1-4)Glc
# Summary of the method: as §1
# [8] = target: Kdn(a2-3)Gal(b1-4)GlcNAc
# Summary of the method: as §1
# [9] = target: Kdn(a2-3)Gal(b1-4)[Fuc(a1-3)]GlcNAc
# Summary of the method: as §1
# [10] = target: Kdn(a2-6)Gal(b1-4)GlcNAc
# Summary of the method: as §1
# [11] = target: Man(a1-2)Man(a1-2)Man(a1-3)Man
# Summary of the method: as §1
# [12] = target: Man(a1-2)Man(a1-2)Man(a1-6)[Man(a1-3)]Man
# Summary of the method: as §1
# [13] = target: Man(a1-2)Man(a1-3)Man
# Summary of the method: as §1
# [14] = target: Man(a1-2)Man(a1-3)[Man(a1-2)Man(a1-6)]Man
# Summary of the method: as §1
# [15] = target: Man(a1-2)Man(a1-3)[Man(a1-2)Man(a1-6)]Man(a1-6)[Man(a1-2)Man(a1-2)Man(a1-3)]Man
# Summary of the method: as §1
# [16] = target: Man(a1-2)Man(a1-3)[Man(a1-2)Man(a1-6)]Man(a1-6)[Man(a1-2)Man(a1-2)Man(a1-3)]Man(b1-4)GlcNAc(b1-4)GlcNAc
# Summary of the method: as §1
# [17] = target: Man(a1-2)Man(a1-3)[Man(a1-6)]Man(a1-6)[Man(a1-2)Man(a1-3)]Man(b1-4)GlcNAc(b1-4)GlcNAc
# Summary of the method: as §1
# [18] = target: Man(a1-2)Man(a1-6)[Man(a1-3)]Man(a1-6)[Man(a1-2)Man(a1-2)Man(a1-3)]Man
# Summary of the method: as §1
# [19] = target: Man(a1-2)Man(a1-6)[Man(a1-3)]Man(a1-6)[Man(a1-2)Man(a1-2)Man(a1-3)]Man(b1-4)GlcNAc(b1-4)GlcNAc
# Summary of the method: as §1
# [20] = target: Man(a1-3)[Man(a1-6)]Man
# Summary of the method: as §1
# [21] = target: Man(a1-3)[Man(a1-6)]Man(a1-6)[Man(a1-2)Man(a1-3)]Man(b1-4)GlcNAc(b1-4)GlcNAc
# Summary of the method: as §1
# [22] = target: Man(a1-3)[Man(a1-6)]Man(a1-6)[Man(a1-3)]Man
# Summary of the method: as §1
# [23] = target: Man(a1-3)[Man(a1-6)]Man(a1-6)[Man(a1-3)]Man(b1-4)GlcNAc(b1-4)GlcNAc
# Summary of the method: as §1
# [24] = target: Man(a1-3)[Man(a1-6)]Man(b1-4)GlcNAc(b1-4)GlcNAc
# Summary of the method: as §1
# [25] = target: Man(a1-6)Man
# Summary of the method: as §1
# [26] = target: Man(b1-4)GlcNAc
# Summary of the method: as §1
# [27] = target: Neu5Ac(a2-3)Gal
# Summary of the method: as §1
# [28] = target: Neu5Ac(a2-3)Gal(b1-3)GalNAc
# Summary of the method: as §1
# [29] = target: Neu5Ac(a2-3)Gal(b1-3)GalNAc(b1-3)Gal(a1-4)Gal(b1-4)Glc
# Summary of the method: as §1
# [30] = target: Neu5Ac(a2-3)Gal(b1-3)GalNAc(b1-4)[Neu5Ac(a2-3)]Gal(b1-4)Glc
# Summary of the method: as §1
# [31] = target: Neu5Ac(a2-3)Gal(b1-3)GalNAc(b1-4)[Neu5Ac(a2-8)Neu5Ac(a2-3)]Gal(b1-4)Glc
# Summary of the method: as §1
# [32] = target: Neu5Ac(a2-3)Gal(b1-3)GalNAc6S
# Summary of the method: as §1
# [33] = target: Neu5Ac(a2-3)Gal(b1-3)GlcNAc
# Summary of the method: as §1
# [34] = target: Neu5Ac(a2-3)Gal(b1-3)GlcNAc(b1-2)Man(a1-3)[Neu5Ac(a2-3)Gal(b1-3)GlcNAc(b1-2)Man(a1-6)]Man(b1-4)GlcNAc(b1-4)GlcNAc
# Summary of the method: as §1
# [35] = target: Neu5Ac(a2-3)Gal(b1-3)GlcNAc(b1-3)Gal(b1-3)GlcNAc
# Summary of the method: as §1
# [36] = target: Neu5Ac(a2-3)Gal(b1-3)GlcNAc(b1-3)Gal(b1-4)GlcNAc
# Summary of the method: as §1
# [37] = target: Neu5Ac(a2-3)Gal(b1-3)GlcNAc(b1-3)GalNAc
# Summary of the method: as §1
# [38] = target: Neu5Ac(a2-3)Gal(b1-3)GlcNAc6S
# Summary of the method: as §1
# [39] = target: Neu5Ac(a2-3)Gal(b1-3)[Fuc(a1-4)]GlcNAc
# Summary of the method: as §1
# [40] = target: Neu5Ac(a2-3)Gal(b1-3)[Fuc(a1-4)]GlcNAc(b1-3)Gal(b1-3)[Fuc(a1-4)]GlcNAc
# Summary of the method: as §1
# [41] = target: Neu5Ac(a2-3)Gal(b1-3)[Fuc(a1-4)]GlcNAc(b1-3)Gal(b1-4)[Fuc(a1-3)]GlcNAc
# Summary of the method: as §1
# [42] = target: Neu5Ac(a2-3)Gal(b1-3)[Neu5Ac(a2-3)Gal(b1-4)]GlcNAc
# Summary of the method: as §1
# [43] = target: Neu5Ac(a2-3)Gal(b1-3)[Neu5Ac(a2-6)]GalNAc
# Summary of the method: as §1
# [44] = target: Neu5Ac(a2-3)Gal(b1-4)Glc
# Summary of the method: as §1
# [45] = target: Neu5Ac(a2-3)Gal(b1-4)GlcNAc
# Summary of the method: as §1
# [46] = target: Neu5Ac(a2-3)Gal(b1-4)GlcNAc(b1-2)Man(a1-3)[GlcNAc(b1-2)Man(b1-4)GlcNAc(b1-2)Man(a1-6)]Man(b1-4)GlcNAc(b1-4)GlcNAc
# Summary of the method: as §1
# [47] = target: Neu5Ac(a2-3)Gal(b1-4)GlcNAc(b1-2)Man(a1-3)[Neu5Ac(a2-6)Gal(b1-4)GlcNAc(b1-2)Man(a1-6)]Man(b1-4)GlcNAc(b1-4)GlcNAc
# Summary of the method: as §1
# [48] = target: Neu5Ac(a2-3)Gal(b1-4)GlcNAc(b1-3)Gal
# Summary of the method: as §1
# [49] = target: Neu5Ac(a2-3)Gal(b1-4)GlcNAc(b1-3)Gal(b1-3)GlcNAc
# Summary of the method: as §1
# [50] = target: Neu5Ac(a2-3)Gal(b1-4)GlcNAc(b1-3)Gal(b1-4)GlcNAc
# Summary of the method: as §1
# [51] = target: Neu5Ac(a2-3)Gal(b1-4)GlcNAc(b1-3)Gal(b1-4)GlcNAc(b1-3)Gal(b1-4)GlcNAc
# Summary of the method: as §1
# [52] = target: Neu5Ac(a2-3)Gal(b1-4)GlcNAc(b1-3)Gal(b1-4)[Fuc(a1-3)]GlcNAc
# Summary of the method: as §1
# [53] = target: Neu5Ac(a2-3)Gal(b1-4)GlcNAc(b1-3)GalNAc
# Summary of the method: as §1
# [54] = target: Neu5Ac(a2-3)Gal(b1-4)GlcNAc(b1-6)[Gal(b1-3)]GalNAc
# Summary of the method: as §1
# [55] = target: Neu5Ac(a2-3)Gal(b1-4)GlcNAc(b1-6)[Neu5Ac(a2-3)Gal(b1-3)]GalNAc
# Summary of the method: as §1
# [56] = target: Neu5Ac(a2-3)Gal(b1-4)GlcNAc6S
# Summary of the method: as §1
# [57] = target: Neu5Ac(a2-3)Gal(b1-4)[Fuc(a1-3)]GlcNAc
# Summary of the method: as §1
# [58] = target: Neu5Ac(a2-3)Gal(b1-4)[Fuc(a1-3)]GlcNAc(b1-3)Gal
# Summary of the method: as §1
binder,measurement,setting,value
B1,glycan array binding signal (z-score),[1],-0.155
same,glycan array binding signal (z-score),[2],-0.153
same,glycan array binding signal (z-score),[3],-0.148
same,glycan array binding signal (z-score),[4],-0.11
same,glycan array binding signal (z-score),[5],-0.149
same,glycan array binding signal (z-score),[6],-0.15
same,glycan array binding signal (z-score),[7],-0.152
same,glycan array binding signal (z-score),[8],-0.154
same,glycan array binding signal (z-score),[9],-0.144
same,glycan array binding signal (z-score),[10],-0.154
same,glycan array binding signal (z-score),[11],-0.152
same,glycan array binding signal (z-score),[12],-0.145
same,glycan array binding signal (z-score),[13],-0.142
same,glycan array binding signal (z-score),[14],-0.153
same,glycan array binding signal (z-score),[15],-0.148
same,glycan array binding signal (z-score),[16],-0.153
same,glycan array binding signal (z-score),[17],-0.143
same,glycan array binding signal (z-score),[18],-0.152
same,glycan array binding signal (z-score),[19],-0.145
same,glycan array binding signal (z-score),[20],-0.152
same,glycan array binding signal (z-score),[21],-0.15
same,glycan array binding signal (z-score),[22],-0.151
same,glycan array binding signal (z-score),[23],-0.149
same,glycan array binding signal (z-score),[24],-0.156
same,glycan array binding signal (z-score),[25],-0.148
same,glycan array binding signal (z-score),[26],-0.145
same,glycan array binding signal (z-score),[27],-0.152
same,glycan array binding signal (z-score),[28],-0.145
same,glycan array binding signal (z-score),[29],-0.152
same,glycan array binding signal (z-score),[30],-0.153
same,glycan array binding signal (z-score),[31],-0.155
same,glycan array binding signal (z-score),[32],-0.149
same,glycan array binding signal (z-score),[33],-0.144
same,glycan array binding signal (z-score),[34],-0.153
same,glycan array binding signal (z-score),[35],-0.153
same,glycan array binding signal (z-score),[36],-0.145
same,glycan array binding signal (z-score),[37],-0.159
same,glycan array binding signal (z-score),[38],-0.154
same,glycan array binding signal (z-score),[39],-0.146
same,glycan array binding signal (z-score),[40],-0.136
same,glycan array binding signal (z-score),[41],-0.138
same,glycan array binding signal (z-score),[42],-0.156
same,glycan array binding signal (z-score),[43],-0.151
same,glycan array binding signal (z-score),[44],-0.131
same,glycan array binding signal (z-score),[45],-0.154
same,glycan array binding signal (z-score),[46],-0.153
same,glycan array binding signal (z-score),[47],-0.155
same,glycan array binding signal (z-score),[48],-0.158
same,glycan array binding signal (z-score),[49],-0.152
same,glycan array binding signal (z-score),[50],-0.155
same,glycan array binding signal (z-score),[51],-0.153
same,glycan array binding signal (z-score),[52],-0.153
same,glycan array binding signal (z-score),[53],-0.153
same,glycan array binding signal (z-score),[54],-0.147
same,glycan array binding signal (z-score),[55],-0.148
same,glycan array binding signal (z-score),[56],-0.141
same,glycan array binding signal (z-score),[57],-0.155
same,glycan array binding signal (z-score),[58],-0.153
